In patent US5763430A, “Method of treating a viral infection by administering a steroid compound” (priority 1995, dated 1998):

Tested on: L1210 lymphoblastic leukemia cells
Test: mouse model of leukemia
Type: in vivo

For `CC(C)[C@@H](CC[C@@H](C)[C@H]1CC[C@H]2[C@@H]3[C@H](O)C[C@H]4C[C@@H](NCCCNCCCCNCCCN)CC[C@]4(C)[C@H]3CC[C@]12C)OS(=O)(=O)O` [Compound 1436], the hematological profile was “near normal hematocrit, with evidence of a robust granulocyte count”.
